In PubChem BioAssay AID743262 (National Center for Advancing Translational Sciences (NCATS), 2014):
The campaign covered roughly 1,300 compounds. About 25 (2%) were called active. Not shown: some 9% with an inconclusive outcome. Calls come from the whole dose curve; as a rule, active = well fitted activation curve with a large enough effect; inconclusive = small, poorly fitted or top-dose-only effect; inactive = flat fitted curve, though single readings scatter. The list shows a part of the results.

target: Glucagon-like peptide 1 receptor (Homo sapiens) (UniProt P43220); test: qHTS of GLP-1 Receptor Agonists: Hit Validation; conditions: HEK293 GLP-1R, cAMP-response luciferase, 4-6 h; series mostly up to 46.1 µM; activation: at the top concentration; for activation: % of control where 0% means no effect
Description: The overall goal of this project was to develop a novel assay for discovering small molecule ligands for class B1 G protein-coupled receptors (GPCRs). Very few agonists (or inverse agonists) with generally weak activity for this entire group of physiologically important receptors are known to date. To establish proof-of-principle that this critical bottleneck can be overcome with a suitable screening approach, our studies focused on the class B1 receptor for glucagon-like peptide-1 (GLP-1R), a potential therapeutic target for diabetes and neurodegenerative disease. The assay was developed in a "mix and measure" format using a cell-based functional readout. Toward this goal, stably transfected HEK293 cell clones were established that co-express (i) a cAMP-responsive luciferase reporter gene, and (ii) GLP-1Rs that upon ligand interaction either stimulate (agonists) or inhibit (inverse agonists) luciferase activity. In different cell lines to be used for screening, expressed GLP-1Rs are specifically optimized for high sensitivity detection of either weak agonists (hypersensitive receptor) or inverse agonists (constitutively active receptor mutant). In addition, control cell lines were developed that express either the cAMP-responsive reporter gene without recombinant GLP-1Rs (enabling initial exclusion of GLP-1R independent effects of candidate probes), or the reporter gene together with wild type GLP-1Rs (for confirmation of probe activity at this receptor), or the reporter gene in combination with the constitutively active orphan receptor GPR119 (enabling initial exclusion of GLP-1R independent inhibitory effects of candidate inverse agonists). To that end, this assay was optimized for 1536-well format and screened against the MLSMR. NIH Molecular Libraries Probe Production Network [MLPCN] NIH Chemical Genomics Center [NCGC] Grant: NS064851 PI Name: Martin Beinborn, Tufts Medical Center
In a white solid 1536-well plate, 6 uL of cells are dispensed in DMEM without phenol red, 10% Nu serum, and 1% pen-strep medium. The plates are then incubated for 12 hours at 37 deg C at 5% CO2 before 23 nL of compounds are added. After a 4-6 hr incubation at37 deg C and 5% CO2, 3 uL of detection reagent are added and after a 12 min incubation at RT, a luminescent read is obtained on the ViewLux.
Potency is the fitted concentration of half-maximal effect.

UniProt P43220, sequence (P43220 whole entry, looked up): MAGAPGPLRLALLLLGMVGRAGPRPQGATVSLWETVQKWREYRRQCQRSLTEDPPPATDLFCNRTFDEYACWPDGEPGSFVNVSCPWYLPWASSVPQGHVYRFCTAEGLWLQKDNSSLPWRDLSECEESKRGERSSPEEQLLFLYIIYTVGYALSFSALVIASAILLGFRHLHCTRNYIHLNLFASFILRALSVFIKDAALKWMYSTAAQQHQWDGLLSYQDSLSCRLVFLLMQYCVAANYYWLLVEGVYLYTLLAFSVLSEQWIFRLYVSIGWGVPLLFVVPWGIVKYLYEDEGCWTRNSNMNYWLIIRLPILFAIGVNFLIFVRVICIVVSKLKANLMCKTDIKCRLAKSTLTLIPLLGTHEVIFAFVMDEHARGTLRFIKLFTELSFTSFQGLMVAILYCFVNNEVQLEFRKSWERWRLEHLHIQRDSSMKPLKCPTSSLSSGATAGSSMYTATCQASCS

| SMILES | activation | Potency |
| --- | --- | --- |
| CN(C)CCO | inactive: -0.671% |  |
| O=c1[nH]cnc2nc(-c3ccc(N(CCCl)CCCl)cc3)[nH]c12 | inactive: 17.1% |  |
| COc1ccc(-n2c(-c3ccc(C)cc3)nc3ccccc3c2=O)cc1 | inactive: 5.56% |  |
| c1ccc2nc(N3CCNCC3)ccc2c1 | inactive: 2.45% |  |
| CCC1C(C)=NN=C(c2ccc(OC)c(OC)c2)c2cc(OC)c(OC)cc21 (configuration not stated) | inactive: 28.4% |  |
| C[C@]12CCC(=O)C[C@@H]1CC[C@@H]1[C@@H]2CC[C@]2(C)[C@@H](O)CC[C@@H]12 | inactive: 1.4% |  |
| O=C(CCCOc1ccc(Cl)cc1Cl)N1CCC2(CC1)OCCO2 | inactive: 3.79% |  |
| CCNc1nc(NC(C)(C)C)nc(SC)n1 | inactive: 2.02% |  |
| C=CCn1c(O)c(C(CC)=NCCc2c[nH]c3ccccc23)c(=O)[nH]c1=O | inactive: 10.3% |  |
| CN(C)C(=O)Oc1cc(OC(=O)N(C)C)cc(C(O)CNC(C)(C)C)c1 (configuration not stated) | inactive: -0.316% [at 19.8 µM] |  |
| COc1ccc(C2=NCc3nnc(C)n3-c3ccc(Cl)cc32)cc1Cl | inactive: 22.8% |  |
| O=[N+]([O-])c1c2ccccc2cc2ccccc12 | inactive: 1.49% |  |
| C[C@H]1CCC[C@H](O)CCCCCc2cc(O)cc(O)c2C(=O)O1 | inactive: 0.305% |  |
| Cc1nn(-c2ccccc2)c2c1C(c1ccc3c(c1)OCO3)SCC(=O)N2 (configuration not stated) | inactive: -0.435% |  |
| COc1ccc(C=O)cc1 | inactive: -1.31% |  |
| COc1ccc(Cc2nccc3cc(OC)c(OC)cc23)cc1OC | inactive: 28.3% |  |
| CN1CCN=C(c2ccccc2)c2cc(Cl)ccc21 | inactive: -0.229% |  |
| N#Cc1c(/N=C/c2ccc(O)cc2O)sc2c1C1CCN2CC1 | inactive: 12.4% |  |
| C[C@@H]1CN([C@H](C)CO)C(=O)CCCn2cc(nn2)CO[C@H]1CN(C)C(=O)Oc1ccc2ccccc2c1 | inactive: -0.911% |  |
| COc1cccc([C@@]2(O)CCCC[C@@H]2CN(C)C)c1 | inactive: -1.26% [at 92.2 µM] |  |
| CC(Cc1ccc(O)cc1)NCC(O)c1ccc(O)c(O)c1 (configuration not stated) |  | active: 9.2 nM |
| Cc1ccc(CN2CCSc3ccc(C(=O)N4CCC5(CC4)OCCO5)cc32)cc1 | inactive: -0.309% |  |
| CC(NCc1ccc(Cl)cc1)C(O)c1ccccc1 (configuration not stated) | inactive: 20.3% |  |
| CCC(=NC(C)c1ccccc1)c1c(O)[nH]c(=O)[nH]c1=O (configuration not stated) | inactive: 15% |  |
| NP(=O)(Nc1ccccc1)Nc1ccccc1 | inactive: 14.8% |  |
| CN1C(=O)CN=C(c2ccccc2)c2cc(Cl)ccc21 | inactive: 1.37% |  |
| N#Cc1ccccc1Cn1cc(C(=O)c2ccco2)c2ccccc21 | inactive: 5.2% |  |
